Test results taken from the supplement of paper PMC10126150.
Values marked as one replicate rest on one cluster of the flow cell; about a third of the high ones do not repeat.

Test system: ATP
Experiment: switch fluorescence ratio, 500 uM ATP over buffer (Cy3 cluster intensity, sum of 5 cycles each) (fold (ratio)); higher = stronger signal-on switching upon ATP binding; sequences stand for … in TCGTCGGCAGCGTCAGATGTGTATAAGAGACAGTTTTTTTTTTTTTTTTTTTTTTTTT…TC
Conditions: aptamer strand: ATP DNA aptamer (quencher-CACCTGGGGGAGTATTGCGGAGGAAGG + anchor), 100 nM annealed; ATP concentration: 500 uM; one replicate
How it was run: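 Between each of five buffer/ATP cycles, the flow-cell was stripped with NaOH and re-annealed. Each cycle imaged Cy3-labelled switching-strand clusters, annealed to 100 nM quencher-labelled ATP aptamer on a modified Illumina MiSeq flow-cell, first in selection buffer and then after 15 min with 500 uM ATP at 22 °C. The fluorescence ratio is summed target-cycle over summed buffer-cycle Cy3 intensity per cluster, averaged per switch-domain sequence, with clusters outside 100-1000 RFU excluded.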
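Also: ATP exposure 15 min at 22 °C before imaging.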

GGAGCCGGG
switch fluorescence ratio: 1.03

AGCCACAAGT
switch fluorescence ratio: 1.03

AGGCGAACA
switch fluorescence ratio: 0.987

GCGACGGAAG
switch fluorescence ratio: 1.06

CAAGGGTTCT
switch fluorescence ratio: 0.999

AGCAGGGAGG
switch fluorescence ratio: 1.01

GTGATATTCT
switch fluorescence ratio: 1.53

ATGGTACGGG
switch fluorescence ratio: 1.06

ATGTTACTTA
switch fluorescence ratio: 1.08

AGCGGAATCT
switch fluorescence ratio: 1.04

ATGTGAACGG
switch fluorescence ratio: 1

CTGCCATGAA
switch fluorescence ratio: 1.03

GGAAATACGG
switch fluorescence ratio: 1.09

TAGTAGTCCT
switch fluorescence ratio: 1.01

GGACCAGTGC
switch fluorescence ratio: 1.23

GCCGGCCAAG
switch fluorescence ratio: 0.971

CAAAATAGGC
switch fluorescence ratio: 1.08

AGTCCTCTCT
switch fluorescence ratio: 0.963

GATAGTATTG
switch fluorescence ratio: 0.964

AAATGGTACG
switch fluorescence ratio: 1.04

TTTCAATACA
switch fluorescence ratio: 1.06

TATACCGACT
switch fluorescence ratio: 1.05

TAGATCTGGT
switch fluorescence ratio: 0.985

GCAAAGCCTT
switch fluorescence ratio: 1.07

CAATACCAAT
switch fluorescence ratio: 1.04

TTGGCGTTGC
switch fluorescence ratio: 1.01

CTAAGGTGAG
switch fluorescence ratio: 1.03

GCCATGCACC
switch fluorescence ratio: 1.05

TATCAGTTGA
switch fluorescence ratio: 1

GGCCTACGCC
switch fluorescence ratio: 1.05

CAATGATTTA
switch fluorescence ratio: 0.974

AAATCACAGC
switch fluorescence ratio: 1.1

GCGGAAAATT
switch fluorescence ratio: 0.988

CCCAAACGGT
switch fluorescence ratio: 1.08

TTGGTCGCGA
switch fluorescence ratio: 0.992

GCTTTCTAAT
switch fluorescence ratio: 1.01

TGGTAGCTGA
switch fluorescence ratio: 1

ATGAGGAAAG
switch fluorescence ratio: 1.04

AGTCATAATA
switch fluorescence ratio: 0.96

CATGAATAGG
switch fluorescence ratio: 1.03

TGGCTCTG
switch fluorescence ratio: 1

ACACTCGGGG
switch fluorescence ratio: 0.98

CCCGTTGATG
switch fluorescence ratio: 1.03

TTACAATCTA
switch fluorescence ratio: 0.929

TTCGGTGCCT
switch fluorescence ratio: 1.3

AATTGAGCGA
switch fluorescence ratio: 1.09

CCGCTGGGAG
switch fluorescence ratio: 1.24

GATGGGAGAA
switch fluorescence ratio: 1.01

TTGCTTTTAG
switch fluorescence ratio: 0.953

TCGCGCTCGA
switch fluorescence ratio: 1.03

CGCTTGTGTA
switch fluorescence ratio: 1.02

GCGAGTGCTC
switch fluorescence ratio: 1.06

TCAGGCGGCC
switch fluorescence ratio: 0.965

TGGCCTTGGC
switch fluorescence ratio: 0.987

AGTATTAGTT
switch fluorescence ratio: 1.01

TACTGCTACT
switch fluorescence ratio: 1.1

TAATGTTGGC
switch fluorescence ratio: 0.958

ATGTTTCTAG
switch fluorescence ratio: 0.954

TATTAATCAG
switch fluorescence ratio: 0.961

TTCACCACA
switch fluorescence ratio: 1.02

TGGTGGATAC
switch fluorescence ratio: 1.02

TGGTTGTTCG
switch fluorescence ratio: 0.982

CGCAGTGCCC
switch fluorescence ratio: 1.93

GTAGAGGGCT
switch fluorescence ratio: 1.02

TTATCTCCTT
switch fluorescence ratio: 1.06

TATTGAAGG
switch fluorescence ratio: 1

TCAAAACAAC
switch fluorescence ratio: 1

ACTCTAGCGC
switch fluorescence ratio: 1.2

CCGGTTGTCA
switch fluorescence ratio: 1.05

AGACGTCATT
switch fluorescence ratio: 0.991

TTCAGTGATA
switch fluorescence ratio: 1.03

CATCCGTCCA
switch fluorescence ratio: 3.6

GTAGTTTGA
switch fluorescence ratio: 0.99

TGTGACCGGG
switch fluorescence ratio: 1.03

GCCCCGAGGT
switch fluorescence ratio: 1.04

GAATGTTCAA
switch fluorescence ratio: 0.97

GACAGTAAAA
switch fluorescence ratio: 1.09

GATAGGCTCT
switch fluorescence ratio: 0.993

CTTTTTGATT
switch fluorescence ratio: 0.967

CGGCGTATCT
switch fluorescence ratio: 0.973

CCATCAGCTC
switch fluorescence ratio: 1.56

TGGCAAGCTG
switch fluorescence ratio: 1.05

ACGCGTACGA
switch fluorescence ratio: 0.959

GGGGGCGATC
switch fluorescence ratio: 1.03

GCGCGGGGCG
switch fluorescence ratio: 1.01
